# Data taken from the supplement of paper PMC8728848.
# The list shows a part of the results.
# How the values were obtained:
# Assay in all cases: glycan array binding signal (z-score within array); higher = stronger binding
# Settings in all cases: glycan notation: IUPAC condensed, linker removed
# [1] = target: Fuc(a1-2)[GalNAc(a1-3)]Gal(b1-3)GlcNAc(b1-6)GalNAc
# Outline: (§1)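 Glycan array binding is given as a within-array Z-score, which can be read as non-binding when negative. The arrays, 3228 of them, came from the Consortium for Functional Glycomics database and were retained only where the protein sequence was available. Z-scores were averaged across arrays of the same protein sequence at different concentrations or buffers and across linkers.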
# [2] = target: Fuc(a1-2)[GalNAc(a1-3)]Gal(b1-4)Glc
# Outline: as §1
# [3] = target: Fuc(a1-2)[GalNAc(a1-3)]Gal(b1-4)GlcNAc
# Outline: as §1
# [4] = target: Fuc(a1-2)[GalNAc(a1-3)]Gal(b1-4)GlcNAc(b1-2)Man
# Outline: as §1
# [5] = target: Fuc(a1-2)[GalNAc(a1-3)]Gal(b1-4)GlcNAc(b1-2)Man(a1-3)[Fuc(a1-2)[GalNAc(a1-3)]Gal(b1-4)GlcNAc(b1-2)Man(a1-6)]Man(b1-4)GlcNAc(b1-4)GlcNAc
# Outline: as §1
# [6] = target: Fuc(a1-2)[GalNAc(a1-3)]Gal(b1-4)GlcNAc(b1-2)Man(a1-3)[Fuc(a1-2)[GalNAc(a1-3)]Gal(b1-4)GlcNAc(b1-2)Man(a1-6)]Man(b1-4)GlcNAc(b1-4)[Fuc(a1-6)]GlcNAc
# Outline: as §1
# [7] = target: Fuc(a1-2)[GalNAc(a1-3)]Gal(b1-4)GlcNAc(b1-3)Gal(b1-4)GlcNAc
# Outline: as §1
# [8] = target: Fuc(a1-2)[GalNAc(a1-3)]Gal(b1-4)GlcNAc(b1-3)Gal(b1-4)GlcNAc(b1-3)Gal(b1-4)GlcNAc
# Outline: as §1
# [9] = target: Fuc(a1-2)[GalNAc(a1-3)]Gal(b1-4)GlcNAc(b1-3)GalNAc
# Outline: as §1
# [10] = target: Fuc(a1-2)[GalNAc(a1-3)]Gal(b1-4)GlcNAc(b1-3)[Fuc(a1-2)[GalNAc(a1-3)]Gal(b1-4)GlcNAc(b1-6)]GalNAc
# Outline: as §1
# [11] = target: Fuc(a1-2)[GalNAc(a1-3)]Gal(b1-4)GlcNAc(b1-6)GalNAc
# Outline: as §1
# [12] = target: Fuc(a1-2)[GalNAc(a1-3)]Gal(b1-4)[Fuc(a1-3)]GlcNAc
# Outline: as §1
# [13] = target: Fuc(a1-2)[GalNAc(a1-3)]Gal(b1-4)[Fuc(a1-3)]GlcNAc(b1-3)GalNAc
# Outline: as §1
# [14] = target: Fuc(a1-2)[GalNAc(a1-4)]Gal(b1-4)GlcNAc
# Outline: as §1
# [15] = target: Fuc(a1-2)[GalNAc(b1-3)]Gal
# Outline: as §1
# Fuc(a1-3)GlcNAc = target: Fuc(a1-3)GlcNAc
# Outline: as §1
# [16] = target: Fuc(a1-3)[Gal(b1-4)]Glc6S
# Outline: as §1
# [17] = target: Fuc(a1-3)[Gal(b1-4)]GlcNAc
# Outline: as §1
# [18] = target: Fuc(a1-3)[Gal(b1-4)]GlcNAc(b1-2)Man
# Outline: as §1
# [19] = target: Fuc(a1-3)[Gal(b1-4)]GlcNAc(b1-2)Man(a1-3)[Fuc(a1-3)[Gal(b1-4)]GlcNAc(b1-2)Man(a1-6)]Man(b1-4)GlcNAc(b1-4)GlcNAc
# Outline: as §1
# [20] = target: Fuc(a1-3)[Gal(b1-4)]GlcNAc(b1-2)Man(a1-3)[Fuc(a1-3)[Gal(b1-4)]GlcNAc(b1-2)Man(a1-6)]Man(b1-4)GlcNAc(b1-4)[Fuc(a1-6)]GlcNAc
# Outline: as §1
# [21] = target: Fuc(a1-3)[Gal(b1-4)]GlcNAc(b1-3)Gal(b1-3)[Fuc(a1-4)]GlcNAc
# Outline: as §1
# [22] = target: Fuc(a1-3)[Gal(b1-4)]GlcNAc(b1-3)GalNAc
# Outline: as §1
# [23] = target: Fuc(a1-3)[Gal(b1-4)]GlcNAc(b1-4)Gal(b1-4)[Fuc(a1-3)]GlcNAc
# Outline: as §1
# [24] = target: Fuc(a1-3)[Gal(b1-4)]GlcNAc(b1-4)Gal(b1-4)[Fuc(a1-3)]GlcNAc(b1-4)Gal(b1-4)[Fuc(a1-3)]GlcNAc
# Outline: as §1
# [25] = target: Fuc(a1-3)[Gal(b1-4)]GlcNAc(b1-6)GalNAc
# Outline: as §1
# [26] = target: Fuc(a1-3)[Gal(b1-4)]GlcNAc(b1-6)[Gal(b1-3)GlcNAc(b1-3)]Gal(b1-4)Glc
# Outline: as §1
# [27] = target: Fuc(a1-3)[Gal(b1-4)]GlcNAc6S
# Outline: as §1
# [28] = target: Fuc(a1-3)[Gal3S(b1-4)]Glc
# Outline: as §1
# [29] = target: Fuc(a1-3)[Gal3S(b1-4)]GlcNAc
# Outline: as §1
# [30] = target: Fuc(a1-3)[Gal3S(b1-4)]GlcNAc6S
# Outline: as §1
# [31] = target: Fuc(a1-3)[GalNAc(b1-4)]GlcNAc
# Outline: as §1
# [32] = target: Fuc(a1-3)[GalNAc(b1-4)]GlcNAc6S
# Outline: as §1
# Fuc(a1-4)GlcNAc = target: Fuc(a1-4)GlcNAc
# Outline: as §1
# Fuc(b1-3)GlcNAc = target: Fuc(b1-3)GlcNAc
# Outline: as §1
# Gal(a1-2)Gal = target: Gal(a1-2)Gal
# Outline: as §1
# Gal(a1-3)Gal = target: Gal(a1-3)Gal
# Outline: as §1
# Gal(a1-3)Gal(b1-3)GlcNAc = target: Gal(a1-3)Gal(b1-3)GlcNAc
# Outline: as §1
# [33] = target: Gal(a1-3)Gal(b1-3)GlcNAc(b1-2)Man
# Outline: as §1
# [34] = target: Gal(a1-3)Gal(b1-3)GlcNAc(b1-2)Man(a1-3)[Gal(a1-3)Gal(b1-3)GlcNAc(b1-2)Man(a1-6)]Man(b1-4)GlcNAc(b1-4)GlcNAc
# Outline: as §1
# [35] = target: Gal(a1-3)Gal(b1-3)GlcNAc(b1-3)GalNAc
# Outline: as §1
# [36] = target: Gal(a1-3)Gal(b1-3)GlcNAc(b1-6)GalNAc
# Outline: as §1
# [37] = target: Gal(a1-3)Gal(b1-3)[Fuc(a1-4)]GlcNAc(b1-2)Man(a1-3)[Gal(a1-3)Gal(b1-3)[Fuc(a1-4)]GlcNAc(b1-2)Man(a1-6)]Man(b1-4)GlcNAc(b1-4)GlcNAc
# Outline: as §1
# Gal(a1-3)Gal(b1-4)Glc = target: Gal(a1-3)Gal(b1-4)Glc
# Outline: as §1
# Gal(a1-3)Gal(b1-4)GlcNAc = target: Gal(a1-3)Gal(b1-4)GlcNAc
# Outline: as §1
binder,measurement,setting,value
Microvirin-2 (Microcystis aeruginosa) (protein) MPNFSHTCSSINYDPDSTILSAECQARDGEWLPTELRLSDHIGNIDGELQFGDQNFQETCQDCHLEFGDGEQSVWLVCTCQTMDGEWKSTQILLDSQIDNNDSQLEIGGSMPNFSHTCSSINYDPDSTILSAECQARDGEWLPTELRLSDHIGNIDGELQFGDQNFQETCQDCHLEFGDGEQSVWLVCTCQTMDGEWKSTQILLDSQIDNNDSQLEIG,glycan array binding signal (z-score),[1],-0.14
same,glycan array binding signal (z-score),[2],-0.143
same,glycan array binding signal (z-score),[3],-0.136
same,glycan array binding signal (z-score),[4],-0.138
same,glycan array binding signal (z-score),[5],-0.121
same,glycan array binding signal (z-score),[6],0.109
same,glycan array binding signal (z-score),[7],-0.127
same,glycan array binding signal (z-score),[8],-0.086
same,glycan array binding signal (z-score),[9],-0.127
same,glycan array binding signal (z-score),[10],-0.132
same,glycan array binding signal (z-score),[11],-0.134
same,glycan array binding signal (z-score),[12],-0.113
same,glycan array binding signal (z-score),[13],-0.115
same,glycan array binding signal (z-score),[14],-0.139
same,glycan array binding signal (z-score),[15],-0.145
same,glycan array binding signal (z-score),Fuc(a1-3)GlcNAc,-0.129
same,glycan array binding signal (z-score),[16],-0.123
same,glycan array binding signal (z-score),[17],-0.141
same,glycan array binding signal (z-score),[18],-0.134
same,glycan array binding signal (z-score),[19],-0.144
same,glycan array binding signal (z-score),[20],-0.126
same,glycan array binding signal (z-score),[21],-0.126
same,glycan array binding signal (z-score),[22],-0.119
same,glycan array binding signal (z-score),[23],-0.101
same,glycan array binding signal (z-score),[24],-0.14
same,glycan array binding signal (z-score),[25],-0.119
same,glycan array binding signal (z-score),[26],-0.143
same,glycan array binding signal (z-score),[27],-0.126
same,glycan array binding signal (z-score),[28],-0.129
same,glycan array binding signal (z-score),[29],-0.133
same,glycan array binding signal (z-score),[30],-0.131
same,glycan array binding signal (z-score),[31],-0.098
same,glycan array binding signal (z-score),[32],-0.14
same,glycan array binding signal (z-score),Fuc(a1-4)GlcNAc,-0.139
same,glycan array binding signal (z-score),Fuc(b1-3)GlcNAc,-0.137
same,glycan array binding signal (z-score),Gal(a1-2)Gal,-0.123
same,glycan array binding signal (z-score),Gal(a1-3)Gal,-0.14
same,glycan array binding signal (z-score),Gal(a1-3)Gal(b1-3)GlcNAc,-0.14
same,glycan array binding signal (z-score),[33],-0.139
same,glycan array binding signal (z-score),[34],-0.117
same,glycan array binding signal (z-score),[35],-0.132
same,glycan array binding signal (z-score),[36],-0.133
same,glycan array binding signal (z-score),[37],0.095
same,glycan array binding signal (z-score),Gal(a1-3)Gal(b1-4)Glc,-0.142
same,glycan array binding signal (z-score),Gal(a1-3)Gal(b1-4)GlcNAc,-0.133
